# According to the supplement of paper PMC10126150:
# Values marked as one replicate rest on one cluster of the flow cell; about a third of the high ones do not repeat.
# Test system: ATP
# Assay: switch fluorescence ratio, 500 uM ATP over buffer (Cy3 cluster intensity, sum of 5 cycles each) (fold (ratio)); higher = stronger signal-on switching upon ATP binding; sequences stand for … in TCGTCGGCAGCGTCAGATGTGTATAAGAGACAGTTTTTTTTTTTTTTTTTTTTTTTTT…TC
# Details: aptamer strand: ATP DNA aptamer (quencher-CACCTGGGGGAGTATTGCGGAGGAAGG + anchor), 100 nM annealed; ATP concentration: 500 uM; one replicate
# Method in brief: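 Values give the fluorescence ratio for each switch-domain sequence, averaged from per-cluster ratios of summed target-cycle to summed buffer-cycle Cy3 intensity. The Cy3-labelled switching-strand clusters sat on a modified Illumina MiSeq flow-cell, were annealed to 100 nM quencher-labelled ATP aptamer, and were imaged in selection buffer, then after 15 min with 500 uM ATP at 22 °C. Five cycles ran with NaOH stripping and re-annealing between them, and clusters outside 100-1000 RFU were excluded.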
# 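Also: ATP exposure 15 min at 22 °C before imaging.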
row,Sequence,switch fluorescence ratio
1,AGCACTCGTA,1.01
2,GGACTTCACC,1.12
3,GATGGCTTCG,0.972
4,GAGCGATTGT,1
5,TCGACTGGCA,1.38
6,AGTTTAGTAC,1.04
7,GAGGACATT,1.03
8,GAGTATATAT,0.996
9,TTATCCGCTT,2.62
10,TTCGTTAATT,0.995
11,TCAAGCAGGT,1.02
12,CTCACACTCT,1.08
13,AGACTGCCAT,1.04
14,CTGACAACTT,1.05
15,ATGTCTAACA,0.992
16,CGTTCTATG,0.972
17,GCTATGTTGG,0.989
18,GCTTATCCGA,0.988
19,TACCAAATGG,0.98
20,ACGTTTGAA,1.01
21,GACCGAAGGA,1
22,ACATCGGGTT,1.02
23,AGAGCCGCTA,1.06
24,GCCGGAGTAA,3
25,AGTCGTGAGA,0.973

row,Sequence,switch fluorescence ratio
1,ACTTATTACG,1.06
2,CGAGCTGCCT,1.02
3,TACAGACGGA,0.883
4,GGTCTATGTC,0.963
5,TGCACGAAGT,1.02
6,GGAAATGCCA,1.02
7,CCTGGCCATT,1.06
8,GCGTGGCGGT,1.04
9,AGCTGCAGGT,1.01
10,CACTTCTTC,0.97
11,GATCCTCAGC,1.2
12,CGCAAATCTT,1.73
13,GGAGTGTGAA,1
14,GCGCAAAGAT,0.985
15,CGGTTATC,1.61
16,GAGTTAGAGT,0.992
17,TCACCTCTCG,1.09
18,AACGCCTCAA,1.17
19,TTTTCATAAT,0.998
20,CTGATGCATT,1.36
21,CGCGCAGCCT,1.05
22,GGATACCGGC,1.01
23,CGTTTGCCT,0.986
24,TTCGTGAA,0.978
25,GTTGTGAATG,1.43

row,Sequence,switch fluorescence ratio
1,CAACCGTCG,1.07
2,TCGATTTGGG,1.03
3,GGTGAAATCT,1.05
4,CCGATGGCTG,1.92
5,CCCATATGGT,1.01
6,TTGCTAACGC,1.04
7,ATGAGTCGAT,1.07
8,AGATCGTGTA,1.04
9,CCGCATAAG,3.27
10,TTGGTGTATT,1.01
11,TCATTTGGGC,0.976
12,CAGTTCTCGG,1.03
13,ACTGGATGGG,1
14,GGATTACGGG,0.966
15,AACTGTATGT,1.07
16,AGGTGTTGTG,0.99
17,ATTCTCACAG,1.02
18,AAAGTCTTAA,1.01
19,GACGCCAACA,1.41
20,GTCCTCGATA,1.14
21,GTGATATGTT,1.01
22,TCATCTGGG,1.03
23,ACTCCTGTAG,1.04
24,TGGAGGTCAA,1.07
25,GTAAATGTTC,1.02

row,Sequence,switch fluorescence ratio
1,TTCGAGGGAG,1.16
2,TGTATTCGG,0.994
3,ATCGAAGAGA,1
4,ATTTTTCACC,1.05
5,GCAAGTAACG,1.05
6,ATATGGTCGG,0.982
7,CCGGGGACAA,3.69
8,GATGTTCGGA,0.943
9,GAGGCTGCCT,1.03
10,CAGGCATGCA,1.01
11,CGTGAGTATA,0.951
12,GGTTACATGG,1.02
13,GTCGAGGAAG,1.02
14,GATGACAATG,1.01
15,GTCCCATGGA,0.97
16,GCACTAGCTA,0.995
17,TCGATTTAAT,0.983
18,AGGGGGTGAT,1.01
19,CATGCGCTAA,2.94
20,GTATGAATTG,0.953
21,ACCGCCTGGA,1.04
22,CGAAAATAGG,1
23,AGCCGCCTGT,1.05
24,GATCATTGCA,0.983
25,CAAACAAGTA,1.06
